Experimental data taken from article PMC4336329 (PLoS ONE, 2015).
Hit rate of the full screen: of about 310,000 compounds, about 14,000 (4.5%) showed an effect of 50% or more. Effects have a minus sign here. The list shows a part of the results.

Each molecule was assayed against human ether-à-go-go-related gene (hERG) potassium channel (human, UniProt Q12809) (assay: primary screen, population patch clamp on CHO cells stably expressing hERG).
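Further: peak tail current of the secondary pulse compared with the same well before compound.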

human ether-à-go-go-related gene (hERG) potassium channel, sequence (Q12809 whole entry, looked up): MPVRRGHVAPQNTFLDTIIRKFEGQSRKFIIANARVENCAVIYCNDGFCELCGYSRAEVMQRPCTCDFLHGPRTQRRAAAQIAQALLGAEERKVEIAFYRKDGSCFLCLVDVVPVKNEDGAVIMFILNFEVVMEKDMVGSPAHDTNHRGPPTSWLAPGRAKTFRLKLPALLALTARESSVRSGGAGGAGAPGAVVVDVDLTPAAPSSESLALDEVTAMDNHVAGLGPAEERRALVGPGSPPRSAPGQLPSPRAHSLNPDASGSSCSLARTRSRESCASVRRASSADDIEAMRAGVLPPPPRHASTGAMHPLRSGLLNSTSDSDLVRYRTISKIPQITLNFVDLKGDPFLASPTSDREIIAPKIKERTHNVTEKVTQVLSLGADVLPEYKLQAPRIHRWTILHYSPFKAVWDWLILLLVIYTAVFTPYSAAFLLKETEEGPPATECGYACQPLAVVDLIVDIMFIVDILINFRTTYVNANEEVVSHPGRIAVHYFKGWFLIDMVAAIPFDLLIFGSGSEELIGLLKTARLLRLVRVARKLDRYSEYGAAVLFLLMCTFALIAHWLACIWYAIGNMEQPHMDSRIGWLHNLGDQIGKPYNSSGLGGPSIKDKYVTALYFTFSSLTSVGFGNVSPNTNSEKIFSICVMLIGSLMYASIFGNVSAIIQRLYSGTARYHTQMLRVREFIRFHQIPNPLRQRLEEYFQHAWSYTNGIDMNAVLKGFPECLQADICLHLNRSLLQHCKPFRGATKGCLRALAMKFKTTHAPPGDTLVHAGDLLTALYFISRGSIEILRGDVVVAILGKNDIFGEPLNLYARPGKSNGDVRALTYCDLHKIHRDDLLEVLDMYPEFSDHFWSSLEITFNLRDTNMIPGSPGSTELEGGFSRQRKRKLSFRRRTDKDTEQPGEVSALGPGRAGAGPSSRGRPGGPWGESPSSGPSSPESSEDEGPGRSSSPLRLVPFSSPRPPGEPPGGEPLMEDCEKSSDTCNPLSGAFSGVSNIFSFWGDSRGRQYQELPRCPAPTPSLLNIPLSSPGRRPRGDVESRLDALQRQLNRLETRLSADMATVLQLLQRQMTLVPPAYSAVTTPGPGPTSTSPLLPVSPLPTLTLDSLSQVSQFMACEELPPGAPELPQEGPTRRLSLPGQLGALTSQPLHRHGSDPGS

Row | Structure (SMILES) | hERG current change (%, negative = inhibition) at 10uM
1 | COC(=O)c1ccccc1NC(=S)NC(NC(=O)c1ccco1)C(Cl)(Cl)Cl (stereo not drawn) | -5.26%
2 | COc1ccccc1OCCn1c(=S)[nH]c2ccccc21 | 5.56%
3 | CN(C)N=C1c2cc(S(=O)(=O)N(C)C)ccc2-c2ccc(S(=O)(=O)N(C)C)cc21 | 12.7%
4 | O=C(CCc1nc2ccccc2[nH]1)NCc1ccc2c(c1)OCO2 | -38.1%
5 | CC(=O)c1ccc(OCc2cc(C(=O)N3CC[C@@H]4CCCC[C@H]4C3)no2)cc1 | -3.85%
6 | Cc1cc(C)c(N(CC(=O)NCc2ccccc2)C(=O)c2csnn2)c(C)c1 | -3.69%
7 | COc1ccc(C(OCC2CO2)c2ccc(OC)cc2)cc1 (stereo not drawn) | 14.6%
8 | CCNc1nc(OC)nc(SCC(=O)Nc2ccccc2)n1 | 17.2%
9 | COCC(C)NCc1cccc(OC)c1OC.O=C(O)C(=O)O (stereo not drawn) | 11.8%
10 | COCc1cc(=O)n2c([nH]c3ccccc32)c1C#N | -7.46%
11 | CCC(=O)NC1=C(NC(C)c2ccccc2)C(=O)c2ccccc2C1=O (stereo not drawn) | 5.08%
12 | COc1ccc(CCN2CC(C(=O)N(C)Cc3ccc4nsnc4c3)CCC2=O)cc1 (stereo not drawn) | -39.6%
13 | O=C1CCN(CCc2ccccc2)CCN1[C@H](COc1ccccc1)Cc1ccccc1 | -78.6%
14 | CCC1CCCCN1CCCNC(=O)CCCNC(=O)Cn1cnc2sc3c(c2c1=O)CCCC3 (stereo not drawn) | 4.46%
15 | O=C(CC1NCCc2ccccc21)Nc1ccc(Oc2ccccc2)cc1 (stereo not drawn) | -15%
16 | CC(C)C(=O)Nc1c(-c2cccc(Cl)c2)c(=O)c2ccccc2n1C | 28.8%
17 | O=C(Nc1cccc(C(F)(F)F)c1)Oc1ccccc1N1CCOCC1 | 13.7%
18 | COc1ccccc1N1CCN(C(=O)COc2cccc3ccccc23)CC1 | -3.84%
19 | CCC(=O)NC(c1ccccc1Cl)c1c(O)ccc2ccccc12 (stereo not drawn) | -14.4%
20 | Cc1[nH]c2ccccc2c1/C=N/Nc1cccc(C(=O)O)c1 | 4.8%
21 | COc1ccc(/C=N/NC(=O)c2ccoc2C)cc1O | -4.47%
22 | COc1ccc2c(c1)OC[C@H]1[C@H]2N2C(=O)c3cc(Cl)ccc3NC(=O)[C@@]2(C)[C@H]1c1ccccc1 | -1.2%
23 | CC(=O)n1cc(N(C(=O)CCl)c2ccc([N+](=O)[O-])cc2)c2ccccc21 | -57.1%
24 | O=C(C1CCCCC1)N(CCN1CCCC1)c1nc2ccccc2s1 | -30.1%
